# Experimental data published in PubChem BioAssay AID686979 (National Center for Advancing Translational Sciences (NCATS), 2013).
# The whole screen tested about 420,000 compounds, of which about 50,000 (12%) were called active. Inconclusive means that the source gave no clear call. Such entries were picked first, then a sample of the others. Calls follow the shape of the dose curve; as a rule, active = well fitted inhibition curve with a large enough effect; inconclusive = small, poorly fitted or top-dose-only effect; inactive = flat fitted curve, though single readings scatter. No potency is given beside an inconclusive call; the fits are too rough.
# Assay: qHTS for Inhibitors of human tyrosyl-DNA phosphodiesterase 1 (TDP1): qHTS in cells in presence of CPT; also: nearly all actives have a fitted effect of over 55% in size
# Details: chicken DT40 Tdp1-/-;hTDP1 cells + 20 nM CPT, ATP luminescence, 48 h; activity change, negative = growth inhibition: at 46.2 µM (top of the series)
# Outline: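 Cell growth measured by CellTiter-Glo luminescence after a minimum 48 h, 37 C compound exposure with 20 nM CPT in Tdp1-knockout DT40 cells stably expressing hTDP1, seeded 400/well; qHTS titration format.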
# % is scaled to controls: 0 for no effect and ±100 for the full control effect; potency is read from the fitted curve at half-maximal effect; tags tell the direction and shape of the fitted curve.
SMILES,Potency,"activity change, negative = growth inhibition"
Cc1ccc(-n2ncc3c(N4CCN(C)CC4)ncnc32)cc1Cl,"inconclusive [inhibitor, single point]",
O=C(Nc1ccc(F)c(S(=O)(=O)N2CCOCC2)c1)C1CCCCC1,"inconclusive [inhibitor, single point]",
COc1ccc(-c2cc(NC=O)c3ncc(-c4ccc(OC)c(OC)c4)n3c2)cc1,active: 0.731 µM,
NCCCCCc1nnc(SCC(=O)c2ccc(Cl)cc2)o1,"inconclusive [inhibitor, single point]",
O=c1[nH]c(C2CCCN(S(=O)(=O)c3cccc(Cl)c3)C2)nc2c1nnn2Cc1ccc2c(c1)OCCO2 (centres undefined),"inconclusive [inhibitor, single point]",
Cc1noc(C)c1-c1cncnc1N(C)Cc1ccco1,inactive,
COc1ccc(CNC(=O)CCC(=O)N2CC3CCCN3c3ccccc32)c(OC)c1 (centres undefined),active: 18.4 µM,
Cc1cc(C)cc(OCc2ccc(C(=O)Nc3ccccc3F)o2)c1,inactive,
Cn1ncc2c(Nc3cccc([N+](=O)[O-])c3)ncnc21,inactive,
CNC(=O)c1c[nH]c2ccc(S(=O)(=O)Nc3cccc(Cl)c3C)cc2c1=O,"inconclusive [inhibitor, partial curve, poor fit]",
Cc1cccc(C)c1-n1nnnc1SCC(=O)N1CCNC1=O,"inconclusive [inhibitor, single point]",
CC(C)Oc1ccc(S(=O)(=O)N2CCOCC2)cc1NC(=O)CCCSc1ccccc1,"inconclusive [inhibitor, single point]",
COC(=O)c1c(NC(=O)c2cccs2)sc2c1CCC(C)C2 (centres undefined),"inconclusive [inhibitor, single point]",
CCc1cccc(NC(=O)CSc2ncccc2C(=O)Oc2ccccc2Cl)c1,inactive,
CCOc1ccc(C(=O)N[C@H](C(=O)NNC(=O)c2cccs2)C(C)C)cc1,inactive,
CC(C)C[C@@H](CO)N1CCN(Cc2cccc(C#N)c2)CCC1=O,inactive,
CC(C)CN1C(=O)c2ccc(NC(=O)c3ccccc3F)cc2C1=O,inactive,
O=C1C=C(c2ccc(F)cc2OCc2ccccc2)C[C@@H](c2ccc3c(c2)OCO3)C1,"inconclusive [inhibitor, single point]",
CCn1nc(C(=O)NCC(c2cccs2)N2CCOCC2)c2ccccc2c1=O (centres undefined),active: 14.6 µM,
COc1cccc(NC(=O)C2CC2(c2cccc(OC)c2)c2cccc(OC)c2)c1 (centres undefined),"inconclusive [inhibitor, single point]",
O=c1c(Cc2ccc(F)cc2)c(O)ccn1CCCn1ccnc1,inactive,
COc1cc2nc(N3CCCCC3)nc(NC3CCN(Cc4ccccc4)CC3)c2cc1OC,active: 5.01 µM,
COc1ccc2cc(-c3cc(C(=O)OCC(=O)NC4CCS(=O)(=O)C4)c4ccccc4n3)ccc2c1 (centres undefined),"inconclusive [inhibitor, single point]",
CCOc1ccc(CCNC(=O)COC(=O)c2[nH]c(C)c(C(C)=O)c2C)cc1OCC,"inconclusive [inhibitor, single point]",
Cc1c(C(=O)OCC(=O)N(CCC#N)c2ccccc2)oc2c1ccc1ccccc12,"inconclusive [inhibitor, single point]",

SMILES,Potency,"activity change, negative = growth inhibition"
O=C(N/N=C/c1cc(Br)ccc1O)Nc1ccccc1,"inconclusive [inhibitor, single point]",
c1ccc(Cn2ccc(-c3cnc(-c4ccccc4)s3)n2)cc1,"inconclusive [inhibitor, single point]",
O=C(NCc1nnnn1-c1ccc(F)cc1)c1ccc([N+](=O)[O-])o1,"inconclusive [inhibitor, single point]",
CC1(C)CCN2CCC(C)(C)c3c(O)ccc1c32,active: 3.26 µM,
COc1ccccc1N(C)S(=O)(=O)c1ccc(Cl)c(C(=O)Nc2cccc(C)n2)c1,active: 18.4 µM,
COc1ccccc1-c1noc2c1C(=O)N(Cc1cn(-c3ccccc3)nn1)CC2,inactive,
COC(=O)c1c(-c2cccs2)csc1NC(=O)CSc1ncnc2sc(C)c(C)c12,"inconclusive [inhibitor, partial curve, poor fit]",
CCN1C(=O)[C@@H]2[C@@H](c3ccc(-c4ccc(C(C)=O)cc4)c(OC)c3)N3CCC[C@@]3(C(=O)OC)[C@@H]2C1=O,"inconclusive [inhibitor, single point]",
CC(=O)c1c(N2CCOCC2)nc2ccc(Br)cc2c1-c1ccccc1,inactive,
Cn1nc(C2CC2)cc1NC(=O)C1(C)CCN1C(=O)c1ccccc1CCc1ccccc1 (centres undefined),active: 29.1 µM,
CNC(=S)N(Cc1cc2cc(OC)c(OC)cc2[nH]c1=O)C1CCCC1,inactive,
COc1ccccc1N1CCN(C(=O)COc2cccc3ccccc23)CC1,active: 23.1 µM,
Cc1nn(-c2cccc(Cl)c2)nc1C(=O)Nc1cccc(C(=O)NC2CC2)c1,"inconclusive [inhibitor, single point]",
CC(C)C12CN3CC(C(C)C)(CN(C1)C3c1ccc(OCc3ccccc3)cc1)C2=O (centres undefined),inactive,
CC(C)(C)NC(=S)NCCc1ccccc1,inactive,
CC(C)n1c(SCC(=O)Nc2ccc(F)cc2)nc2c(oc3ccccc32)c1=O,"inconclusive [inhibitor, single point]",
CCOc1ccccc1CNC(=O)c1ccc2c(c1)sc1nc(-c3cccc(OC)c3)cn12,active: 8.2 µM,
CCCNC(=O)C1(C)CCCN(CCOc2ccccc2)C1 (centres undefined),"inconclusive [inhibitor, single point]",
Cc1ccc(S(=O)(=O)N2CCN=C2SCc2c(F)cccc2Cl)cc1,"inconclusive [inhibitor, single point]",
CC(C)(C)NC(=O)C(c1ccccn1)N(C(=O)C1CSC(=O)C1)c1ccccc1F (centres undefined),inactive,
CC(C)(C)c1cc(CN2CCCC(O)C2)c(O)c(C(C)(C)C)c1 (centres undefined),"inconclusive [inhibitor, single point]",
Cc1cc(NC(=O)c2ccc(Cl)cc2)ccc1NC(=O)c1ccccc1Cl,"inconclusive [inhibitor, partial curve]",
CC1CCCN(Cc2c(C(=O)N3CCc4ccccc4C3)nc3ccc(Cl)cn23)C1 (centres undefined),"inconclusive [inhibitor, single point]",
CCCCn1c(-c2cc(Cl)ccc2OC)n[nH]c1=S,inactive,
Cc1cc(N=Cc2c(O)n(-c3cccc(C(F)(F)F)c3)c(=O)c3ccccc23)no1,active: 18.4 µM,

SMILES,Potency,"activity change, negative = growth inhibition"
COc1cc(Br)c(C(C)NC(=O)c2ccc(C)cc2)cc1OC (centres undefined),"inconclusive [inhibitor, partial curve]",
Cc1ccccc1OCC(=O)Nc1ccc2[nH]ncc2c1,inactive,
Cc1ccc2cc3cc(C(=O)NCCCN4CC(C)CC(C)C4)oc3nc2c1 (centres undefined),"inconclusive [inhibitor, single point]",
CCOc1ccc(-n2c(SCC(=O)Nc3ccc(F)cc3)nc3c([nH]c4ccccc43)c2=O)cc1,"inconclusive [inhibitor, partial curve]",
COc1ccc(O)c(/C=N/NC(=O)CN2CCS(=O)(=O)CC2)c1,"inconclusive [inhibitor, partial curve, poor fit]",
CCOC(=O)Nc1ccc2c(c1)N(C(=O)CN(CC)CC)c1ccccc1CC2,"inconclusive [inhibitor, single point]",
Cc1cc(NC(=O)c2ccccc2F)ncc1NC(=O)c1cccs1,"inconclusive [inhibitor, single point]",
COC(=O)C(CC(=O)c1ccc(Br)cc1)n1cccn1 (centres undefined),inactive,
O=C(O)c1ccc(N2C(=O)c3[nH]nc(-c4ccccc4)c3C2c2ccccc2)cc1 (centres undefined),inactive,
COC(=O)CNC(=O)CN(c1ccc(OC)cc1OC)S(=O)(=O)c1ccccc1,inactive,
COCCN(CCOC)Cc1cc(=O)oc2ccccc12,inactive,
Cc1noc(C)c1NC(=O)N(C)C[C@H]1OCc2cnnn2CCCC(=O)N([C@H](C)CO)C[C@@H]1C,inactive,
O=C(Nc1cc(Cl)ncn1)c1ccccc1,inactive,
O=C(N/N=C/c1cc(Br)c(Br)o1)c1cccnc1,active: 16.4 µM,
CCCCNC(=O)COC(=O)c1ccc(Cl)c(S(N)(=O)=O)c1,inactive,
Cc1cnn(Cc2cccnc2)c1N,inactive,
O=C(Nc1ccc(F)cc1F)N1CCCC(c2nc(-c3ccc(F)cc3)no2)C1 (centres undefined),active: 18.4 µM,
CC(C)Nc1ncnc2c1ncn2[C@H]1CN(Cc2ccc(-c3ccccc3)cc2)C[C@@H](CO)O1,active: 4.61 µM,
COc1ccc(/C=C2\SC(=O)N(CCC(=O)N(C)C3CCS(=O)(=O)C3)C2=O)cc1 (centres undefined),"inconclusive [inhibitor, single point]",
COc1ccccc1N1CCN(C(=O)Cn2cnc3c2c(=O)n(C)c(=O)n3C)CC1,"inconclusive [inhibitor, partial curve, poor fit]",
COc1ccccc1CNC(=O)c1ccc(N2Cc3cccc(OC)c3Oc3ncccc32)s1,active: 14.6 µM,
COc1ccc(-c2noc(-c3ccc(N4CCCCC4C)c([N+](=O)[O-])c3)n2)cc1OC (centres undefined),"inconclusive [inhibitor, single point]",
C=C(C)Cn1c(N2CCCC2)nc2c1c(=O)n(C)c(=O)n2C,,inconclusive: -31.3% [inhibitor]
Cc1ccc(NC(=O)c2ccc(NCCc3ccccc3)c([N+](=O)[O-])c2)cc1F,"inconclusive [inhibitor, partial curve]",
